Results from PubChem BioAssay AID743279 (National Center for Advancing Translational Sciences (NCATS), 2014).
Hit rate of the full screen: of about 360,000 compounds, about 17,000 (4.7%) were called active. The inconclusive results got no clear call from the source; some entries with a clear call stand among them for comparison. Rule as the data show it: active = activity change below about -50%; inconclusive = mostly about -30% to -49%; inactive = weaker than that.
% is scaled to controls: 0 for no effect and ±100 for the full control effect.

Test: qHTS for Inhibitors of Inflammasome Signaling: IL-1-beta AlphaLISA Primary Screen
Conditions: THP-1 LPS/ATP IL-1B secretion, 16 h; at 57.5 µM, stronger effect = lower value
How it was run: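 Secreted IL-1B measured by AlphaLISA bead assay after 16 h compound exposure of THP-1 cells; compounds (final up to 57.5 uM) added 1 h before LPS (250 ng/mL) and ATP (1.25 mM) stimulation; lower signal means less secretion.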
In the case of CC(C)NC(=O)C(C)N1CCN(S(=O)(=O)c2ccc3ccccc3c2)CC1 (centres undefined), the activity change is reported as inactive: 30.3%.
With COc1ccc(-c2nnc3ccc(SC(C(C)=O)C(C)=O)nn23)cc1OC the activity change was inactive: 15.9%.
In the case of O=C(/C=C/c1ccc(S(=O)(=O)N2CCOCC2)cc1)NC(=S)NCCCn1ccnc1, the activity change is reported as active: -74.6%.
In the case of O=C(c1cccnc1)N1CCN(Cc2cccc(Br)c2)CC1, the activity change is reported as inconclusive: -32.3%.
In the case of O=C(Nc1ccccc1C(=O)N1CCCC1)c1ccc(Cl)c([N+](=O)[O-])c1, the activity change is reported as inconclusive: -33%.
For Cc1sc(NC(=O)c2ccco2)nc1-c1ccc2c(c1)CC(C)N2C(=O)C1CC1 (centres undefined), the activity change was active: -72.9%.
For O=C(Nc1ccccc1N1CCCCC1)c1ccc(-c2cc(Cl)ccc2Cl)o1, the activity change was inactive: 10.7%.
In the case of C[C@H](O)C#Cc1ccc2c(c1)O[C@@H](CN(C)Cc1ccc(-c3ccccc3)cc1)[C@H](C)CN([C@@H](C)CO)S2(=O)=O, the activity change is reported as inconclusive: -47.5%.
In the case of CCN(CC)CCCNc1ccc(-c2nnc(-c3ccc(OCC(C)C)cc3)o2)cn1, the activity change is reported as active: -51%.
In the case of CCOC(=O)c1c(C)[nH]c(C)c1S(=O)(=O)NCCc1cccs1, the activity change is reported as inactive: -4.72%.
For CC1=C(C(=O)N2CCCCCC2)CC(CC(=O)NCC2CCCCC2)C(=O)N1CCCN1CCCC1=O (centres undefined), the activity change was inactive: -9.41%.
In the case of CC(C(=O)Nc1ccc(F)cc1Cl)N1CCN(S(=O)(=O)c2cccs2)CC1 (centres undefined), the activity change is reported as inconclusive: -34.9%.
In the case of O=C1OCC/C1=C1/NCCNC1=O, the activity change is reported as inactive: 0%.
With COc1cccc(OC)c1C(=O)Nc1ccc(Cc2ccncc2)cc1 the activity change was inconclusive: -47.5%.
For CCCCCC[n+]1ccccc1/C=C/c1ccc(N(C)C)cc1, the activity change was inconclusive: -30.9%.
With COc1ccc(CSC2=CS(=O)(=O)c3ccccc3N2)cc1 the activity change was inconclusive: -35.1%.
For COc1ccc(S(=O)(=O)N2CCN(C(=O)CC3CC4CCC3C4)CC2)cc1 (centres undefined), the activity change was inconclusive: -36.3%.
For OCC1(CCOc2ccccc2)CCN(Cc2cc(Cl)ccc2O)CC1, the activity change was inconclusive: -37.1%.
In the case of CCOc1ccc2nc(NC(=O)C(CCSC)NS(=O)(=O)c3cccs3)sc2c1 (centres undefined), the activity change is reported as inconclusive: -49.2%.
In the case of O=C(Nc1ccc(N2CCOCC2)c(S(=O)(=O)Nc2ccccc2Cl)c1)c1ccc(F)cc1, the activity change is reported as active: -55.9%.
For CC(CC(=O)NC1CCCCC1)S(=O)(=O)c1ccc2c(c1)NC(=O)CO2 (centres undefined), the activity change was inactive: 41.9%.
For CC(OC(=O)c1ccccn1)C(=O)Nc1nc(-c2ccc(F)c(F)c2)cs1 (centres undefined), the activity change was inconclusive: -30.6%.
In the case of CCS(=O)(=O)c1ccc(O)c(NC(=O)Nc2ccc(C(C)(C)C)cc2)c1, the activity change is reported as active: -88.3%.
With O=C(CC1SCCNC1=O)Nc1cc(Cl)cc(Cl)c1 (centres undefined) the activity change was inconclusive: -33.3%.
For CCN(CC)CCNC(=O)c1ccc2c(=O)n(CCc3ccccc3)c(=O)[nH]c2c1, the activity change was inactive: -5.01%.
In the case of COn1c(-c2ccccc2)nc2c1CCc1c-2no[n+]1[O-], the activity change is reported as active: -63.4%.
For Cc1cc(N2CCN(C)CC2)nc2ccc(NC(=S)NCCCN3CCc4ccccc4C3)cc12, the activity change was active: -91.9%.
With CCOc1ccc(NS(=O)(=O)c2cccc(C(=O)N3CCN(C/C=C/c4ccccc4)CC3)c2)cc1 the activity change was inconclusive: -34.7%.
For O=C(c1cc2c(c(-c3cccc(-c4ccc(F)cc4)c3)n1)[C@H](CCO)N(C(=O)c1ccc3c(c1)OCO3)C2)N1CCOCC1, the activity change was inconclusive: -31.6%.
For O=C(c1cn(-c2ccccc2)nc1-c1ccc(F)cc1)N1CCOCC1, the activity change was inactive: -11.6%.
In the case of COc1ccc(C2c3ccc(O)cc3Oc3ncn4nc(-c5ccco5)nc4c32)cc1OC (centres undefined), the activity change is reported as inactive: 32.2%.
In the case of O=C(NCCCN1CCOCC1)C(=O)N/N=C/c1ccccc1O, the activity change is reported as inactive: 29.4%.
With CCOC(=O)/C(C#N)=C/c1c(N2CCN(c3ccccc3)CC2)nc2ccccn2c1=O the activity change was inactive: 31.6%.
In the case of COCCN(C(=S)Nc1cccc(Cl)c1C)C(C)c1ccco1 (centres undefined), the activity change is reported as inconclusive: -31.5%.
With CCCCN1CC(=O)N2Cc3[nH]c4ccccc4c3C[C@H]2C1=O the activity change was inconclusive: -43.8%.
In the case of CCCCn1c(N)c(N(CC(C)C)C(=O)c2ccc(OC)c(S(=O)(=O)N3CCOCC3)c2)c(=O)[nH]c1=O, the activity change is reported as inactive: 12.2%.
With CCOC(=O)CNC(=S)N(Cc1ccco1)Cc1ccccc1Cl the activity change was inactive: -14.4%.
With Cn1c(SCC(=O)Nc2cccnc2Cl)nnc1-c1ccco1 the activity change was inactive: -15%.
In the case of CC(=O)C1=C(C)OC(N)=C(C#N)C1c1ccncc1 (centres undefined), the activity change is reported as inconclusive: -31.7%.
For CCOc1ccccc1NC(=O)/C=C/C(N)=O, the activity change was active: -103%.
For O=C(CN1CCN(S(=O)(=O)c2ccc(F)c(Cl)c2)CC1)N1CCc2ccccc2C1, the activity change was inactive: -4.99%.
In the case of O=C(Nc1cccn(Cc2c(Cl)cccc2Cl)c1=O)c1c(Cl)cccc1Cl, the activity change is reported as inconclusive: -32.4%.
For O=C(c1ccc(Br)cc1)C(CN1CCOCC1)c1ccccc1 (centres undefined), the activity change was active: -98.1%.
With CC(C)(C(=O)c1cccnc1)c1cccnc1 the activity change was inconclusive: -43.7%.
In the case of O=C(CCc1ccccc1)Nc1c(F)c(F)c(F)c(F)c1F, the activity change is reported as inconclusive: -35.5%.
For COc1ccc(C(=O)Nc2cccc(C(=O)NCc3ccccc3)c2)cc1, the activity change was inactive: 3.55%.
With COc1ccccc1C(=O)Nc1ccc2c(c1)n(C)c(=O)n2C the activity change was inconclusive: -38.4%.
In the case of COC(=O)CSc1cc(C(F)(F)F)nc(-c2ccccn2)n1, the activity change is reported as inconclusive: -30.1%.
In the case of O=C(NCCN1C(=O)S/C(=C\c2ccc(Cl)c(Cl)c2)C1=O)c1ccc2c(c1)C(=O)N(Cc1ccncc1)C2=O, the activity change is reported as inconclusive: -31.7%.
For O=C(CN1C(=O)NC2(CCOc3ccccc32)C1=O)N1CCCCC1 (centres undefined), the activity change was inactive: 12.8%.
In the case of COc1cc2c(cc1OC)C(=O)N1[C@H]3c4ccccc4OC[C@@H]3[C@H](c3ccccc3)[C@]1(C)C(=O)N2, the activity change is reported as inconclusive: -37.2%.
For Cc1ccc(S(=O)(=O)/N=C2\C=C(Nc3ccc(O)cc3)C(=O)c3ccccc32)cc1, the activity change was active: -96.7%.
In the case of CCOc1nc(C#N)nc(N2CCCCC2)n1, the activity change is reported as active: -92.2%.
For Nc1ncn([C@H]2C[C@H](O)[C@@H](CO)O2)c(=O)n1, the activity change was inactive: 3.6%.
